Some test systems named below: 501Mel; A101D; A2058; A375.
What all share (experiment): cell count relative to DMSO control; melanoma cells; higher = more viable cells
What all share (settings): library dose: standard library concentration; 72 h

The text below walks through data of the supplement of paper PMC4604168 (melanoma cell lines).

Each structure is given as a SMILES string. Some of the results follow. Many values rest on one well or one pass, so single values are uncertain.
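Also: cells treated in 1,536-well plates, then fixed and DAPI-stained, with nuclei counted from automated high-throughput microscope images.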

Take `COc1cc2c(Oc3ccc4[nH]c(C)cc4c3F)ncnc2cc1OCCCN1CCCC1` [cediranib] + COc1cc2ncnc(Nc3ccc(Oc4ccccc4)cc3)c2cc1OC [SrcI1] (first compound 2 µM, partner dose 10 µM): the cell count with 501Mel is 66.5%; with A101D, 51%; in the assay on A2058, 101%; in the assay on A375 it was 167%.
With `CC(C)(C)c1cnc(CSc2cnc(NC(=O)C3CCNCC3)s2)o1` + COC(=O)c1sccc1S(=O)(=O)Nc1ccc(Nc2ccccc2)cc1OC [GSK0660] (first compound 0.05 µM, partner dose 5 µM), the cell count worked out at 82.8% in the assay with 501Mel, 79.8% with A101D, 91.8% with A2058 and 88.4% in the assay on A375.
Consider `NC(=O)c1ccc(N(C(N)=O)c2c(F)cccc2F)nc1-c1ccc(F)cc1F` + COC(=O)c1sccc1S(=O)(=O)Nc1ccc(Nc2ccccc2)cc1OC [GSK0660] (first compound 2 µM, partner dose 5 µM), for which the cell count came out at 88.7% in the assay on 501Mel, 118% in the assay on A101D, 74.1% with A2058 and 102% in the assay on A375.
Regarding `CCCCCCCCc1ccc(CCC(N)(CO)CO)cc1` [fingolimod] + c1cc(-c2cnn3cc(-c4ccc(OCCN5CCCCC5)cc4)cnc23)ccn1 [Dorsomorphin] (first compound 10 µM, partner dose 2 µM), the cell count in the assay on 501Mel was determined as 0.962%; with A101D it was 7.67%; in the assay with A2058 it was 5.95%; with A375, 69.7%.
On to `CC(C)(C)c1cnc(CSc2cnc(NC(=O)C3CCNCC3)s2)o1` + COc1ccc(COc2ccc(Cc3cnc(N)nc3N)cc2OC)cc1 [GW2580] (first compound 0.05 µM, partner dose 5 µM), for which the cell count amounted to 107% in the assay with 501Mel, 62.8% in the assay on A101D, 105% with A2058 and 83.2% in the assay on A375.
With `CC(C)(C)c1cnc(CSc2cnc(NC(=O)C3CCNCC3)s2)o1` + O=c1cc(-c2cccc3c2Sc2ccccc2S3)oc(N2CCOCC2)c1 [KU55933] (first compound 0.05 µM, partner dose 5 µM), the cell count stood at 92.2% in the assay with 501Mel, 78.6% in the assay on A101D, 73.3% in the assay on A2058 and 105% in the assay with A375.
Take `CCc1ccc(CCOc2ccc(CC3SC(=O)NC3=O)cc2)nc1` (stereo not given) [pioglitazone] + c1cc(-c2cnn3cc(-c4ccc(OCCN5CCCCC5)cc4)cnc23)ccn1 [Dorsomorphin] (first compound 10 µM, partner dose 2 µM): the cell count in the assay on 501Mel is 57.3%; with A101D, 72.4%; with A2058, 78.3%; with A375 it was 84.6%.
As for `CCc1ccc(CCOc2ccc(CC3SC(=O)NC3=O)cc2)nc1` (stereo not given) [pioglitazone] + O=c1cc(-c2cccc3c2Sc2ccccc2S3)oc(N2CCOCC2)c1 [KU55933] (first compound 10 µM, partner dose 5 µM), the cell count with 501Mel amounted to 91.4%; with A101D, 88.2%; in the assay on A2058, 93.1%; with A375 it was 128%.
With `CCc1ccc(CCOc2ccc(CC3SC(=O)NC3=O)cc2)nc1` (stereo not given) [pioglitazone] + O=C(Nc1ccccc1)c1cc([N+](=O)[O-])ccc1Cl [GW9662] (first compound 10 µM, partner dose 10 µM), the cell count with 501Mel was 76%; with A101D it was 68.9%; with A2058 it was 111%; in the assay with A375 it was 124%.
For the molecule `CCc1ccc(CCOc2ccc(CC3SC(=O)NC3=O)cc2)nc1` (stereo not given) [pioglitazone] + CCN(CC)CCCCNc1ncc2cc(-c3cc(OC)cc(OC)c3)c(NC(=O)NC(C)(C)C)nc2n1 [PD173074] (first compound 10 µM, partner dose 0.5 µM), the cell count is 92.2% in the assay with 501Mel, 91.9% in the assay on A101D, 86.2% in the assay on A2058 and 107% in the assay with A375.
As for `CN(NC(=O)CC(=O)NN(C)C(=S)c1ccccc1)C(=S)c1ccccc1` + Oc1nc(-c2ccc(C(F)(F)F)cc2)nc2c1CSCC2 [XAV939] (first compound 0.03 µM, partner dose 10 µM), the cell count in the assay with 501Mel is 6.09%; with A101D it was 52.7%; in the assay with A2058, 8.56%; in the assay on A375 it was 102%.
Consider `COc1cc2c(Oc3ccc4[nH]c(C)cc4c3F)ncnc2cc1OCCCN1CCCC1` [cediranib] + O=C1NC(=O)/C(=C/c2ccc(-c3ccc(F)cc3O)o2)S1 [AS252424] (first compound 2 µM, partner dose 5 µM), for which the cell count in the assay with 501Mel came out at 74.8%; in the assay on A101D, 123%; in the assay with A2058 it was 93.8%; in the assay on A375, 145%.
On to `CCc1ccc(CCOc2ccc(CC3SC(=O)NC3=O)cc2)nc1` (stereo not given) [pioglitazone] + Oc1cc(-c2nc(-c3ccccc3)[nH]c2-c2ccncc2)ccc1Cl [L779450] (first compound 10 µM, partner dose 1 µM), for which the cell count in the assay with 501Mel was 67.4%; with A101D, 78.5%; in the assay with A2058, 95.2%; in the assay with A375, 91.9%.
The matching figures for `CC(C)(C)c1cnc(CSc2cnc(NC(=O)C3CCNCC3)s2)o1` + N#Cc1c(O)c2c(-c3ccc(-c4ccccc4O)cc3)csc2[nH]c1=O [A769662] (first compound 0.05 µM, partner dose 10 µM): 102%, 81.8%, 94% and 102%.
The matching figures for `CN(NC(=O)CC(=O)NN(C)C(=S)c1ccccc1)C(=S)c1ccccc1` + CCc1ccc(CCOc2ccc(CC3SC(=O)NC3=O)cc2)nc1 [pioglitazone] (first compound 0.03 µM, partner dose 10 µM): 17.8%, 60.4%, 23.5% and 120%.
`Cc1ccc(NC(=O)c2cccc(N(C)C)c2)cc1NC(=O)c1ccc(O)cc1` + COc1ccc(-c2ccc3c(N4CCOCC4)nc(N4C[C@@H](C)O[C@@H](C)C4)nc3n2)cc1CO [KU0063794] (first compound 10 µM, partner dose 0.1 µM): the cell count with 501Mel came out at 76.4%; with A101D, 92.9%; in the assay with A2058, 84.4%; in the assay with A375, 108%.
The matching figures for `CCCCCCCCc1ccc(CCC(N)(CO)CO)cc1` [fingolimod] + COC(=O)c1sccc1S(=O)(=O)Nc1ccc(Nc2ccccc2)cc1OC [GSK0660] (first compound 10 µM, partner dose 5 µM): 1.23%, 5.89%, 4.55% and 34.7%.
For the molecule `CC(C)(C)c1cnc(CSc2cnc(NC(=O)C3CCNCC3)s2)o1` + Cn1cc(/C=C2\C(=O)Nc3cccnc32)c2ccccc21 [GW441756] (first compound 0.05 µM, partner dose 2 µM), the cell count with 501Mel came to 76.1%; in the assay with A101D it was 83.6%; in the assay on A2058, 91.6%; in the assay with A375, 112%.
As to `COc1cc2c(Oc3ccc4[nH]c(C)cc4c3F)ncnc2cc1OCCCN1CCCC1` [cediranib] + COc1cc(N2CCC(N3CCN(C)CC3)CC2)ccc1Nc1ncc(Cl)c(Nc2ccccc2S(=O)(=O)C(C)C)n1 [NVP-TAE684] (first compound 2 µM, partner dose 0.4 µM), the cell count amounted to 50.6% in the assay with 501Mel, 81.3% with A101D, 71.5% with A2058 and 78.4% in the assay with A375.
The matching figures for `CCc1ccc(CCOc2ccc(CC3SC(=O)NC3=O)cc2)nc1` (stereo not given) [pioglitazone] + COc1ccc(-c2ccc3c(N4CCOCC4)nc(N4C[C@@H](C)O[C@@H](C)C4)nc3n2)cc1CO [KU0063794] (first compound 10 µM, partner dose 0.1 µM): 88.3%, 101%, 92.4% and 110%.
In the same order, the values of `NC(=O)c1ccc(N(C(N)=O)c2c(F)cccc2F)nc1-c1ccc(F)cc1F` + COc1ccc(COc2ccc(Cc3cnc(N)nc3N)cc2OC)cc1 [GW2580] (first compound 2 µM, partner dose 5 µM) are 106%, 94%, 97.3% and 147%.
As for `NC(=O)c1ccc(N(C(N)=O)c2c(F)cccc2F)nc1-c1ccc(F)cc1F` + O=c1cc(-c2cccc3c2Sc2ccccc2S3)oc(N2CCOCC2)c1 [KU55933] (first compound 2 µM, partner dose 5 µM), the cell count in the assay on 501Mel was 80.6%; in the assay on A101D it was 74%; in the assay with A2058, 100%; in the assay with A375, 132%.
For `Cc1ccc(NC(=O)c2cccc(N(C)C)c2)cc1NC(=O)c1ccc(O)cc1` + CCN(CC)CCCCNc1ncc2cc(-c3cc(OC)cc(OC)c3)c(NC(=O)NC(C)(C)C)nc2n1 [PD173074] (first compound 10 µM, partner dose 0.5 µM), the cell count with 501Mel is 67.9%; in the assay with A101D, 99.1%; with A2058, 86.2%; with A375, 103%.
Turning to `CCCCCCCCc1ccc(CCC(N)(CO)CO)cc1` [fingolimod] + Oc1cc(-c2nc(-c3ccccc3)[nH]c2-c2ccncc2)ccc1Cl [L779450] (first compound 10 µM, partner dose 1 µM), the cell count amounted to 0.597% with 501Mel, 4.97% with A101D, 4.38% in the assay with A2058 and 83.7% with A375.
Turning to `COc1cc2c(Oc3ccc4[nH]c(C)cc4c3F)ncnc2cc1OCCCN1CCCC1` [cediranib] + Cn1cc(/C=C2\C(=O)Nc3cccnc32)c2ccccc21 [GW441756] (first compound 2 µM, partner dose 2 µM), the cell count in the assay on 501Mel was found to be 60.3%; in the assay on A101D it was 90.1%; in the assay with A2058, 90.1%; with A375, 138%.
For `NC(=O)c1ccc(N(C(N)=O)c2c(F)cccc2F)nc1-c1ccc(F)cc1F` + Cn1cc(/C=C2\C(=O)Nc3cccnc32)c2ccccc21 [GW441756] (first compound 2 µM, partner dose 2 µM), the cell count in the assay with 501Mel was found to be 74.8%; in the assay on A101D, 95.3%; in the assay on A2058 it was 95.1%; in the assay on A375, 165%.
For `CCc1ccc(CCOc2ccc(CC3SC(=O)NC3=O)cc2)nc1` (stereo not given) [pioglitazone] + COc1ccc(COc2ccc(Cc3cnc(N)nc3N)cc2OC)cc1 [GW2580] (first compound 10 µM, partner dose 5 µM), the cell count stood at 108% with 501Mel, 75.6% in the assay on A101D, 105% in the assay with A2058 and 87.4% in the assay with A375.
`NC(=O)c1ccc(N(C(N)=O)c2c(F)cccc2F)nc1-c1ccc(F)cc1F` + O=C(Nc1ccccc1)c1cc([N+](=O)[O-])ccc1Cl [GW9662] (first compound 2 µM, partner dose 10 µM): the cell count turned out to be 57.6% in the assay with 501Mel, 76.8% in the assay on A101D, 96.8% in the assay with A2058 and 83% in the assay on A375.
In the same order, the values of `CC(C)(C)c1cnc(CSc2cnc(NC(=O)C3CCNCC3)s2)o1` + c1cc(-c2cnn3cc(-c4ccc(OCCN5CCCCC5)cc4)cnc23)ccn1 [Dorsomorphin] (first compound 0.05 µM, partner dose 2 µM) are 29.3%, 13.6%, 27.9% and 62.8%.
Take `COc1cc2c(Oc3ccc4[nH]c(C)cc4c3F)ncnc2cc1OCCCN1CCCC1` [cediranib] + O=C(Nc1ccccc1)c1cc([N+](=O)[O-])ccc1Cl [GW9662] (first compound 2 µM, partner dose 10 µM): the cell count in the assay with 501Mel stood at 67.1%; in the assay with A101D, 75.6%; in the assay with A2058, 89.5%; in the assay with A375 it was 142%.
